Test results from PubChem BioAssay AID493208 (National Center for Advancing Translational Sciences (NCATS), 2011).
Hit rate of the full screen: of about 44,000 compounds, about 340 (0.77%) were called active. Inconclusive results (about 5%) are left out. The call rests on the fitted dose curve; in most records, active means well fitted inhibition curve with a large enough effect; inconclusive means small, poorly fitted or top-dose-only effect; inactive means flat fitted curve, though single readings scatter. Some of the results follow.

Assay: Acumen qHTS Assay for Inhibitors of the mTORC1 Signaling Pathway in MEF (Tsc2-/-, p53-/-) Cells: Sytravon;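 further: plate controls were DMSO for no effect and rapamycin for full effect; nearly all actives have a fitted effect of over 50% in size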
Details: phospho-rpS6 immunofluorescence/PI, 24 h; series mostly up to 38.3 µM; activity change, negative = inhibition: at the top concentration
How it was run: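 Immunofluorescence of rpS6 phosphorylation in Tsc2-/-, p53-/- MEFs after 24 h compound exposure, normalized to propidium iodide signal. Activity is expressed as % positive cells, thresholded with 7.5 nM rapamycin.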

Activity change, negative = inhibition, inactive:
CCOc1ccc(N(CC)S(=O)(=O)N2CCCC(C(=O)Nc3ccc(OC)c(Cl)c3)C2)cc1 (stereo unspecified) -19.7%, Cc1cccc(NC(=O)CN2C(=O)CSc3ccc(S(=O)(=O)N4CCCC4)cc32)c1C -1.59%, COC(=O)CC(=O)CSc1nc2cc(C(=O)NCC(C)C)ccc2c(=O)n1CCc1ccccc1 0%, O=C(Nc1ccccc1C(F)(F)F)N1CC=C(c2c[nH]c3ccccc23)CC1 -21.2%, COc1ccc(-c2cc3nc(C)c(CCC(=O)NC(C)c4ccccc4)c(C)n3n2)c(OC)c1 (stereo unspecified) 5.21%, COc1ccc(-c2onc(C)c2C)cc1S(=O)(=O)N1CCN(c2cc(C)ccc2C)CC1 1.28%, Cc1c(Cl)ccc2sc(N3CCN(C(=O)C4CC4)CC3)nc12 0.877%, Cc1nn(C(=O)c2cccc([N+](=O)[O-])c2C)c(C)c1S(=O)(=O)N1CCCCCC1 -3.14%, Cc1cccc(NC(=O)N2CCC(CN3CCCCCC3)CC2)c1C 1.2%, CC1CCN(S(=O)(=O)c2ccc3c(c2)CCN3C(=O)Nc2ccc(Br)cc2F)CC1 -5.45%, CCc1ccccc1NC(=O)Cn1nc(N2CCN(c3ccccc3OC)CC2)ccc1=O 4.8%, CCOc1ccccc1C(=O)N1CCC(c2nc3ccccc3o2)CC1 -6.77%, COc1ccc(OC)c(NC(=O)CC(=O)Nc2ccc3nc4n(c(=O)c3c2)CCCCC4)c1 -14.3%, Cc1nc(SCC(=O)Nc2ccc(C(=O)O)cc2)n[nH]1 -4.71%, Cc1cc(C)c(OCCOCCn2c(-c3ccc(Cl)cc3)nc3ccccc3c2=O)c(C)c1 0%, Cc1ccc(C2CCN(C(=O)c3cnn(-c4ccc(C)c(C)c4)c3C3CCN(C(=O)OC(C)(C)C)CC3)C2)cc1 (stereo unspecified) -2.32%, CS(=O)(=O)N(Cc1ccccc1)c1ccc(C(=O)Nc2ccc(Cl)cc2)cc1 7.81%, Cc1cccc(-n2nc(C)c(C(=O)N3CCN(c4ccccc4)CC3)c2-n2cccc2)c1 10.6%, COc1ccccc1C(=O)Nc1ccc(S(=O)(=O)Nc2ncccn2)cc1 -3.84%, Cc1cc(F)ccc1NC(=O)CCn1nc(C)c(S(=O)(=O)N2CCCCC2)c1C 15.4%, Cc1ccc(C)c(N2CCN(C(=O)C(CC(C)C)NS(=O)(=O)c3ccc4nc(C)sc4c3)CC2)c1 (stereo unspecified) -3.85%, COc1ccc(Cl)cc1NC(=O)c1cc(S(=O)(=O)N(C)Cc2ccccc2)ccc1F -5.33%, COc1cccc(-c2nc(SCC(=O)Nc3ccc4c(c3)OCCO4)c(-c3ccc(C)cc3)[nH]2)c1 -3.15%, CCOC(=O)c1cnc2c(C)cccc2c1Nc1ccc(OC(C)C)cc1 0.457%, COc1ccccc1CN(Cc1c(Cl)cccc1Cl)S(=O)(=O)c1ccc(Br)cc1 9.65%, Cn1c(=O)[nH]c(=O)c2c1nc(CN1CCN(c3ccccc3F)CC1)n2Cc1ccc(F)cc1 0.805%, Cc1cccc(OCCCn2c(CCNC(=O)C3CCCCC3)nc3ccccc32)c1 7.74%, Cn1cc(S(=O)(=O)c2cccc(Cl)c2)c(=O)c2cc(F)c(N3CCCCC3)cc21 0.165%, O=C(NCCc1ccc(Cl)cc1)c1ccc(CSCc2cccc(Cl)c2)o1 -20.3%, Cc1ccc(Cl)cc1NC(=O)c1oc2ccc(S(=O)(=O)N3CCCCCC3)cc2c1C 0.339%, Cc1cc(C)cc(OCC(=O)N2CCC(c3nc4ccccc4s3)CC2)c1 -0.37%, CCc1cccc(C)c1NC(=O)CSc1nc2c(c(=O)[nH]1)CCC2 0.778%, CCCN1C(=O)C(Cc2nc3ccccc3c(=O)n2-c2ccc(OC)cc2)c2cc(C)ccc21 (stereo unspecified) -16.2%, O=C(NCC(c1ccco1)S(=O)(=O)c1cccs1)c1ccc(Cl)cc1 (stereo unspecified) 0.232%, Cc1ccc2oc(=O)n(CCNC(=O)Nc3ccc(Cl)cc3)c2c1 -6.44%, Cc1cc(C(=O)NCc2ccccc2Cl)c2c(C)nn(-c3cccc(F)c3)c2n1 4.98%, CCCN(C(=O)Nc1cn(CC(C)C)c(=O)c2ccccc12)c1ccc(F)cc1 -5.82%, Cc1ccc(C(=O)Nc2ccc3oc(-c4ccccc4C)nc3c2)cc1 -10.8%, CC(=O)N1CCc2c(sc3c2c(=O)n(-c2ccc(C)cc2)c(=O)n3Cc2ccccc2C)C1 -2.73%, CCCCNC(=O)c1ccc2c(c1)NC(=O)C(CS(=O)(=O)Cc1ccc(C)cc1)N2 (stereo unspecified) -4.79%, CC(C)C(=O)OCc1cc(=O)n2nc(C3CC3)sc2n1 -15.1%, CCN1CCN(c2oc(/C=C/c3cc(OC)c(OC)c(OC)c3)nc2C#N)CC1 -8.05%, CCc1ccc(C2c3c(oc4cc(C)c(C)cc4c3=O)C(=O)N2c2nc(C)c(C(=O)OC)s2)cc1 (stereo unspecified) 7%, Cc1cc(C)cc(NC(=O)CSc2nc3sc4c(c3c(=O)[nH]2)CCCC4)c1 -4.47%, CCC1CN(C(=O)Nc2cc(Cl)c(OC)cc2OC)c2ccccc2O1 (stereo unspecified) 6.81%, Cc1cc(Cl)ccc1NC(=O)CCCn1nc(C)c2c(C)n(-c3ccccc3)nc2c1=O -0.589%, COc1ccc(-c2noc(CC(=O)Nc3ccc(C)c(F)c3)n2)cc1 -0.343%, COc1cc(C2Nc3ccccc3-c3nnc(SCc4ccc(C)cc4)nc3O2)cc(OC)c1O (stereo unspecified) 5.93%, CSc1ccc(CCNC(=O)c2cc3cc4cc(C)ccc4nc3s2)cc1 -14.1%, Cc1ccc(Cn2c(=O)c3cccnc3n(CC(=O)Nc3cc(Cl)ccc3C)c2=O)cc1 -1.22%, Cc1c(Cl)cccc1NC(=O)Cn1c(=O)n(Cc2nc(-c3ccccc3)no2)c(=O)c2cc3c(cc21)OCO3 -0.109%, CCc1nn(CC(=O)NCCCc2ccccc2)c(=O)c2cc3ccccc3n12 -3.87%, Cc1c(Cl)cccc1NC(=O)C1CCN(c2nc3ccccc3[nH]2)CC1 1.99%, Cc1ccc(Nc2cc(C)c(C#N)c3nc4ccccc4n23)c(C)c1 -11.6%, COC(=O)c1sccc1S(=O)(=O)N(CC(=O)Nc1ccccc1)c1ccccc1 0.904%, Cc1cccc(N2CCN(Cc3cc(=O)oc4cc(C)ccc34)CC2C)c1 (stereo unspecified) -4.67%, Cc1ccccc1N1CC(c2nnc(NC(=O)c3ccco3)s2)CC1=O (stereo unspecified) -3.83%, CC(C)(C)C1CCc2onc(C(=O)Nc3sc4c(c3C#N)CCCC4)c2C1 (stereo unspecified) 2.12%, Cc1cccc(NC(=O)N2CCC(N3CCN(Cc4ccccc4)C(=O)C3=O)CC2)c1C -1.6%, CCOc1ccc(OCC(=O)NCCS(=O)(=O)N2CCN(c3cccc(Cl)c3)CC2)cc1 -3.01%, O=C(c1cc(-c2ccc(F)cc2)on1)N1CCN(c2ccc(F)cc2)CC1 0.206%, Cn1nc(C(=O)N2CCN(c3ccccc3F)CC2)c2c1-c1ccccc1S(=O)(=O)C2 9.17%, O=C(CN1C(=O)c2cccc3cccc1c23)Nc1ccccc1Br -5.38%, CCCCNS(=O)(=O)c1ccc2nc(-c3cccnc3)cc(C(=O)NC(C)C)c2c1 -13.9%, CCCC1N=C2c3ccccc3N=C(SCC(=O)NCCc3ccc(Cl)cc3)N2C1=O (stereo unspecified) 0%, CCCOC(=O)CSc1nnc(-c2ccccc2)o1 0.848%, CCOC(=O)c1ccccc1NC(=O)c1cc2ccc3cccnc3c2[nH]1 4.89%, Cc1oc2ncnc(N3CCOCC3)c2c1C(=O)NCCc1ccccc1 -5.07%, CCn1c(C(=O)Nc2ccc(C)cc2C)cc2sc(Cl)cc21 -4.13%, CCOC(=O)COc1ccc(C)cc1C(=O)c1ccn2nc(-c3ccc(Cl)cc3)cc2n1 2.29%, CC(C)NC(=O)c1ccc2c(c1)nc1n2CCCCC1 -7.09%, Cc1ccc(NS(=O)(=O)c2ccc3nc(-c4ccccc4)[nH]c3c2)c(Br)c1 -20.2%, Cc1sc2ncn(CC(=O)N(C)c3ccc(C(C)C)cc3)c(=O)c2c1S(=O)(=O)N1CCC(C)CC1 -18.1%, COc1ccc(-c2noc(CC(=O)Nc3cc(OC)ccc3OC)n2)cc1 -5.15%, Cc1ccc(Nc2nc3ccc(C(=O)c4ccccc4)cc3n3c(C)nnc23)c(C)c1 -4.48%, CC1CCC(NC(=O)C2(C)Cc3ccccc3C(=O)N2Cc2ccc(Cl)cc2)CC1 (stereo unspecified) 1.63%, CCCn1c(=O)c2sccc2n2c(CCCC(=O)N3CCN(c4cccc(Cl)c4)CC3)nnc12 1.8%, CC(=O)c1cccc(NC(=O)CN2C(=O)CC(c3ccc(C)cc3C)=Nc3ccccc32)c1 8.86%, O=C(/C=C/c1ccc(Cl)cc1)N1CCC(c2nc3ccccc3o2)CC1 -6.26%, CCCCN(CC)CCCNC(=O)c1cn(CC)c2ccc(S(=O)(=O)N3CCc4ccccc4C3)cc2c1=O -1.87%, CCc1cc2c(cc3c(=O)n(CC(=O)N4CCN(c5cccc(C)c5C)CC4)nc(CC)n32)s1 -3.55%, COc1ccc(CCNCc2c(C(=O)O)c(C)n(Cc3cccc(Cl)c3)c2C)c(OC)c1OC -9.05%, CCc1ccccc1NC(=O)CCC(=O)N1CC(C)Oc2ccc(C)cc21 (stereo unspecified) 5.92%, COc1ccc(CCNC(=O)c2cc3c(=O)n(C)c4ccccc4c3s2)cc1OC -0.0431%, O=C(Cn1cc(C(=O)c2ccccc2)c(=O)c2cc3c(cc21)OCCO3)Nc1ccc(F)c(F)c1 0.49%, Cc1ccc(C)c(N2CCN(S(=O)(=O)c3ccc(C(=O)N(C)C)s3)CC2)c1 6.86%, O=C(Cn1cc(S(=O)(=O)Cc2ccccc2Cl)c2ccccc21)NCCc1ccccc1 -4.56%, CCOc1ccccc1CNS(=O)(=O)c1cc2c(cc1C)NC(=O)CO2 0%, Cc1ccccc1CNC(=O)CCC(=O)N1CCSc2ccccc21 4.97%, COc1ccc(NC(=O)c2c(NC(=O)COc3ccccc3)sc3c2CCCCC3)cc1 -7.39%, COc1ccc(NC(=O)CCNS(=O)(=O)c2ccc3c(c2)CCCC(=O)N3)cc1 1.97%, Cc1ccc(-c2cc3ncc4c(n3n2)-c2cc(Cl)ccc2OC4)cc1 -2.7%, O=C(NCc1ccc(F)cc1)C(=O)Nc1ccc2nc3n(c(=O)c2c1)CCCCC3 -3.23%, CCn1nnc2cc(C(=O)Nc3cc(C)ccc3C)ccc21 0%, COc1ccc(NC(=O)CC2C(=O)N(c3cccc(OC)c3)C(=O)N2CCC2=CCCCC2)cc1 (stereo unspecified) -15.5%, CCOc1ccc(CC(=O)NCc2ccc3c(c2)CCN3C(=O)c2ccccc2)cc1OCC -19.9%
